In publication PMC4336329 (PLoS ONE, 2015):
Screen size: about 310,000 compounds; about 2,200 (0.71%) showed an effect of 50% or more. Effects have a minus sign here. The list shows a part of the results.

target: human ether-à-go-go-related gene (hERG) potassium channel (human, UniProt Q12809); assay: primary screen, population patch clamp on CHO cells stably expressing hERG
Sequence (Q12809 whole entry, looked up): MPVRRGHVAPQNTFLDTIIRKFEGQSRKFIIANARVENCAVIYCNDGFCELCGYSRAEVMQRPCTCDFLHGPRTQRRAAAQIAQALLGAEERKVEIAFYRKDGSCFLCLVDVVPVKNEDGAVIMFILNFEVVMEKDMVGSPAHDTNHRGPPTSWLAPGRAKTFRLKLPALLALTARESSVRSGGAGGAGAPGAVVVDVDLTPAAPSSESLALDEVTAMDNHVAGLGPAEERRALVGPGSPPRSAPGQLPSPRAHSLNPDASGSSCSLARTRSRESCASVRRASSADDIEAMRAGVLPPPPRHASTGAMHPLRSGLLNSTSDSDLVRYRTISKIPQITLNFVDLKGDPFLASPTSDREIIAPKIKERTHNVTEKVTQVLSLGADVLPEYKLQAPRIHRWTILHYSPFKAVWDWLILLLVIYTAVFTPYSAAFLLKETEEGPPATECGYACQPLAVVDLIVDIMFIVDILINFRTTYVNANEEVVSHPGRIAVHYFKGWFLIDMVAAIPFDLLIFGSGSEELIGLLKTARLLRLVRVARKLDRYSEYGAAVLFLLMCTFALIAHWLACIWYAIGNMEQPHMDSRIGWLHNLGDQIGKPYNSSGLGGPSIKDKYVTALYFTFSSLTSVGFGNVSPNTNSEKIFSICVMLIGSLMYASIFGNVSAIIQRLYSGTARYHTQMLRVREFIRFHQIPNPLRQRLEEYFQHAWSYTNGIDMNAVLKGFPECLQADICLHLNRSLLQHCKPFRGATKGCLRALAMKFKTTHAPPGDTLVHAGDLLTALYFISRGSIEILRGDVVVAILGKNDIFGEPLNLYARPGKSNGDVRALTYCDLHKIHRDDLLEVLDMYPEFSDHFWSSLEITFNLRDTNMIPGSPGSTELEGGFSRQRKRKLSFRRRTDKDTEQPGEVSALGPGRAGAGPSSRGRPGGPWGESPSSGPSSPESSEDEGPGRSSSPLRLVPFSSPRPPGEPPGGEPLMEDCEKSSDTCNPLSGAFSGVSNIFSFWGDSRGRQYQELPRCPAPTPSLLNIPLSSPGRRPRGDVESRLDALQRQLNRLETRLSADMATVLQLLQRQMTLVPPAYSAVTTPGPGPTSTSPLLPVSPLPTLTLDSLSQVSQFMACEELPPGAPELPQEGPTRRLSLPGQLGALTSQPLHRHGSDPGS

Structure (SMILES) | hERG current change (%, negative = inhibition) at 1uM
CCC(C)(C)NC(=O)C(c1cccn1C)N(C(=O)Cn1nnc2ccccc21)c1ccc(NC(C)=O)cc1 (stereo not shown) | 4.96%
C=CCN1C(=O)C(CC(=O)Nc2ccccc2)SC1=Nc1c(C)n(C)n(-c2ccccc2)c1=O (stereo not shown) | 9.45%
COc1cc([N+](=O)[O-])ccc1NC(=O)COC(=O)C=C(C)C | 6.05%
COCCCN1C(=O)/C(=C/c2ccc(CNS(=O)(=O)c3ccccc3)o2)C(C(=O)OC)=C1C | 8.3%
Cc1ccc(CSCc2ccc(C(=O)NCCC(C)C)o2)cc1 | 13.4%
O=C(NC1c2ccccc2-c2ccccc21)N1CCOCC1 | -7.28%
CCOc1ccccc1C(=O)NCc1ccc2c(c1)OCO2 | -0.201%
COC(=O)c1cnn(-c2ccc(F)cc2F)c1/C=N/NC(=S)NC(C)(C)C | 11.7%
O=C(COc1ccc(Cl)cc1Cl)NCCCNC(=O)c1cnccn1 | -19.9%
O=C(Nc1ccccc1)C(Cl)C(=O)c1ccccc1 (stereo not shown) | 12.2%
CC1=CCC(C(=O)O)(C(=O)N/N=C/c2cccs2)C(c2ccc(F)cc2)C1 (stereo not shown) | 0.847%
CCc1nnc(NC(=O)CCC(=O)N2CCN(S(=O)(=O)c3ccc(OC)cc3)CC2)s1 | 15.1%
O=C(CN1C(=O)CCS(=O)(=O)c2ccccc21)Nc1ccc(F)cc1 | 9.63%
CCOC(=O)c1c(CN(CC)CC)oc2cc(Br)c(O)cc12 | -59.5%
CN(Cc1cn(C)nc1-c1ccc(Oc2ccccc2)cc1)C1CCOC1 (stereo not shown) | 9.11%
CCC(CC)NC(=O)Cc1ccc(F)cc1 | 13%
O=C(Nc1ccc(Oc2cccnc2)cc1)C1CCN(Cc2ccccc2)CC1 | -16.1%
CC(C)(C)NC(=O)NC(=O)COC(=O)c1cccc(OC(F)F)c1 | 1.51%
C=CCSc1nnc(-c2cc3c(s2)-c2ccccc2CC3)o1 | 1.84%
Cc1cccc2sc(NC(=O)CN3C(=O)C4CC=CCC4C3=O)nc12 (stereo not shown) | 7.46%
COc1cccc(-n2c(=O)c3sccc3n(CC(=O)NCC3CCCO3)c2=O)c1 (stereo not shown) | 12.2%
Cc1cc(C)c(CSc2nnnn2-c2ccc(C(=O)O)cc2)c(C)c1 | 9.74%
COc1cc(C)c(Cl)cc1S(=O)(=O)N1CCSC1 | 11%
N/C(Cc1ccc(Cl)cc1Cl)=N\OC(=O)c1ccc(Br)o1 | 19.5%
CN1CCN(C(=O)C2=C[C@H](c3ccc4c(c3)OCO4)C[C@H](OCc3ccc(CO)cc3)O2)CC1 | -17.2%
CC(=O)N(C)c1ccc(NC(=O)Nc2ccc(C)c(C)c2)cc1 | 3.57%
CC(=O)OCCN(Cc1ccccc1)Cc1ccc2c(c1)OCO2 | 1.68%
CCOc1ccc(S(=O)(=O)n2cnc(C)c2)cc1 | 11.7%

Structure (SMILES) | hERG current change (%, negative = inhibition) at 1uM
COc1ccc(NC(=O)CN(C)S(=O)(=O)c2cccc3nsnc23)cc1 | -33.8%
COc1ccc(N(CC(=O)Nc2cccc(SC)c2)S(C)(=O)=O)cc1Cl | -7.88%
Cc1c(C(=O)NCc2cccnc2)oc2c1C(=O)CC(C)(C)C2 | 5.94%
CCOCCCN(C(=O)Cn1nnc(-c2ccc(OC)c(OC)c2)n1)C(CC)C(=O)NC1CCCC1 (stereo not shown) | -0.995%
COCCc1nnc(NC(=O)C23CC4CC(CC(C4)C2)C3)s1 | 15.9%
COc1cc(NC(=O)CN2C3CCC2CC(O)(c2cccnc2)C3)cc(OC)c1 (stereo not shown) | -41.3%
C/C(Cl)=C/Cn1c(N2CCCC2)nc2c1c(=O)n(C)c(=O)n2C | 10.5%
O=C1NC(=S)N(c2cccc(Cl)c2)C12CCCCC2 | 15.2%
CCc1cccc(NC(=O)CSc2nc3c(c(=O)[nH]2)CCCC3)c1 | 16.7%
O=C(CSc1nc2ccc(Cl)cc2[nH]1)NCCc1ccccc1 | 10.7%
CSc1ccc(C2C(C#N)=C(N)N(c3ccccc3)C3=C2C(=O)CCC3)cc1 (stereo not shown) | 5.55%
CC(=O)OCC(OC(C)=O)C(OC(C)=O)C(OC(C)=O)C(=O)Nc1ccc(C)cc1C (stereo not shown) | 2.91%
CCC(C)(C)n1nnnc1C(C(C)C)N1CCSCC1 (stereo not shown) | -23.9%
CCc1ccc(-n2c(SCC(=O)Nc3cccc(S(=O)(=O)NC4=NCCCCC4)c3)nc3ccccc3c2=O)cc1 | 22%
Br.O=C(CN(Cc1ccccc1)C1=NCCS1)c1ccc(Cl)cc1 | 1.83%
Cc1ccc(S(=O)(=O)N2CCCCC2)cc1NC(=O)COC(=O)c1ccc(O)cc1 | 7.9%
CCCOc1cccc(NC(=O)c2c(-c3ccccc3)noc2C)c1 | 1.02%
CCOc1cc(CNCCO)ccc1OCC(=O)NC(C)(C)C.Cl | 12.3%
O=C1CC(c2cc(F)ccc2F)c2cc3c(cc2N1)CCC3 (stereo not shown) | 12.4%
CC(C)OCCCNC(=O)Cn1ncc2c(=O)oc3ccccc3c21 | -0.0503%
O=c1nc2ccccc2c(NS(=O)(=O)c2ccccc2)n1-c1ccccc1 | 9.91%
Cc1ccc(-c2nnc(N3CCCCC3)c3ccccc23)cc1S(=O)(=O)N(C)C | -9.21%
Cc1cc(C)c(C)c(S(=O)(=O)N2CCC(C(=O)Nc3ccccc3N3CCOCC3)CC2)c1C | 3.1%
CCOC(=O)N1CCN(CC(=O)Nc2cc(C)nn2-c2nc3ccccc3s2)CC1 | 2.94%
Clc1ccc(OCC#CCN2CCOCC2)cc1.O=C(O)C(=O)O | 14.9%
O=C(Cn1cc(/C=N/O)c2ccccc21)N1CCOCC1 | 24.9%
CC(C)(C)NC(=O)C(c1ccc(O)cc1)N(C(=O)CCC(=O)Nc1nccs1)c1ccc(F)cc1 (stereo not shown) | 7.52%
